From publication PMC4336329 (PLoS ONE, 2015) come the findings set out here.

The structures appear in SMILES notation. Screen size: about 310,000 compounds; about 2,200 (0.71%) showed an effect of 50% or more. The effect is printed as a negative number. This is one part of the list.

The target in the experiment is human ether-à-go-go-related gene (hERG) potassium channel (human, UniProt Q12809). Kind of experiment: primary screen, population patch clamp on CHO cells stably expressing hERG.
Sequence of human ether-à-go-go-related gene (hERG) potassium channel (Q12809 whole entry, looked up): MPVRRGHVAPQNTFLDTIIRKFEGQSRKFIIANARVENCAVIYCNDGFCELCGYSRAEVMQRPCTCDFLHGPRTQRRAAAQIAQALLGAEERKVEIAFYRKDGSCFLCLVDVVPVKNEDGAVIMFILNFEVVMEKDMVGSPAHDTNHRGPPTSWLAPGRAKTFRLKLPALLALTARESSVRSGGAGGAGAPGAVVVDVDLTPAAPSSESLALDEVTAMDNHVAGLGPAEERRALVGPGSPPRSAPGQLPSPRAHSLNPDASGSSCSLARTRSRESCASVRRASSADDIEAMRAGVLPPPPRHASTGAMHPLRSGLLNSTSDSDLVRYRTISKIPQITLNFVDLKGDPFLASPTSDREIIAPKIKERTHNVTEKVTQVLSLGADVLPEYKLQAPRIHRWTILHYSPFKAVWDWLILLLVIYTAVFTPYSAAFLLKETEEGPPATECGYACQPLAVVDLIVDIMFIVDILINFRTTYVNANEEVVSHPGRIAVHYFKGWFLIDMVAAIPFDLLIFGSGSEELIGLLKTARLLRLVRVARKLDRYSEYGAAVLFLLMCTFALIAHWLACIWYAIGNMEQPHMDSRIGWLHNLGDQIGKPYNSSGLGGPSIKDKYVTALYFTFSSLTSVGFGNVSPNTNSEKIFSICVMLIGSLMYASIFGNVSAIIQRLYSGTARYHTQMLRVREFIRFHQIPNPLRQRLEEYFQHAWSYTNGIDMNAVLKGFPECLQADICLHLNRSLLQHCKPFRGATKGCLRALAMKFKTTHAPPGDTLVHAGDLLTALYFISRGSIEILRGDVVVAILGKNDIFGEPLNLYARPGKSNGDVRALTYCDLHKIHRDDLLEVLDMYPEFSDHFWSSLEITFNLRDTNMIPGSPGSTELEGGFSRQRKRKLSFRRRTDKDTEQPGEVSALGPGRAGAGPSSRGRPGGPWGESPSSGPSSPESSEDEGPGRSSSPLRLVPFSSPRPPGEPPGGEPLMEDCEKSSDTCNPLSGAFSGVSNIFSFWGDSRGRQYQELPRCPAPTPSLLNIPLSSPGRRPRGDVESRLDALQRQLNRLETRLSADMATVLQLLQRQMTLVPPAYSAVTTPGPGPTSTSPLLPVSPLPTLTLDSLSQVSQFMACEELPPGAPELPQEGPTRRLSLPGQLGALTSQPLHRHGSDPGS
As for `NC(=O)C1CCCN(C(=O)CCCNC(=O)c2ccc(Cl)cc2)C1` (centres unmarked), the “hERG current change (%, negative = inhibition) at 1uM” value worked out at 15.5%.
Regarding `COC(=O)[C@]1(C)N[C@H](c2ccc(-c3ccc(Cl)c(Cl)c3)cc2)[C@@H]2C(=O)N(C)C(=O)[C@@H]21.O=C(O)C(F)(F)F`, the “hERG current change (%, negative = inhibition) at 1uM” value worked out at 9.12%.
Take `CC(=O)OC(C(=O)NC1CCCCC1)c1ccccc1` (centres unmarked): the “hERG current change (%, negative = inhibition) at 1uM” value is 9.71%.
For `CN(CC(=O)NC1CCCCCC1)S(=O)(=O)c1cnc[nH]1`, the “hERG current change (%, negative = inhibition) at 1uM” value is 10.8%.
For `COCCN(C(=O)c1snc(C(N)=O)c1N)C(C(=O)NC1CCCC1)c1cc(OC)c(OC)c(OC)c1` (centres unmarked) the value was -9.21%; for `CNC(=O)COC(=O)/C=C/c1cn(-c2ccccc2)nc1-c1ccc2c(c1)OCCO2`, 10.1%.
Take `Cc1ccc(C(=O)Nc2ccc(N3CCOCC3)nc2)cc1`: the “hERG current change (%, negative = inhibition) at 1uM” value is recorded as 6.82%.
As for `CCOC(=O)Cn1nc(C)c(NC(=O)COc2ccccc2)c1C`, the “hERG current change (%, negative = inhibition) at 1uM” value came out at 17.7%.
Turning to `O=C(CSc1ncccn1)NC(=O)Cc1ccccc1`, the “hERG current change (%, negative = inhibition) at 1uM” value is listed as 12%.
For `O=[N+]([O-])c1ccc(Oc2c(F)c(F)nc(N3CCCC3)c2F)cc1` the value was 11%; for `O=C(NCc1cccs1)C1CCN(C(=O)NCc2ccccc2)CC1`, 11.5%.
Regarding `Cc1cccc(C)c1NC(=O)Cn1c(=O)n(CCC(=O)NCc2ccco2)c(=O)c2sccc21`, the “hERG current change (%, negative = inhibition) at 1uM” value came out at 5.46%.
`CCCN(Cc1nnc(-c2cccs2)o1)C(=O)c1cc(S(=O)(=O)N2CCOCC2)ccc1C`: the “hERG current change (%, negative = inhibition) at 1uM” value is -2.82%.
As to `CCOc1ccc(Br)cc1S(=O)(=O)N1CCSC1`, the “hERG current change (%, negative = inhibition) at 1uM” value was -0.112%.
As to `CCCCn1c(N)c(N(CCOC)C(=O)C2CCN(S(=O)(=O)c3ccc(F)cc3)CC2)c(=O)[nH]c1=O`, the “hERG current change (%, negative = inhibition) at 1uM” value was 5.48%.
In the case of `O=C(NCC1CCCO1)c1sc(=S)n2c1[nH]c(=O)c1ccc(C(=O)N3CCCCC3)cc12` (centres unmarked), the “hERG current change (%, negative = inhibition) at 1uM” value was determined as 10.7%.
As for `CC1(NC(=O)CCc2ccccc2)CCN(CCCc2ccccc2)C1=O` (centres unmarked), the “hERG current change (%, negative = inhibition) at 1uM” value turned out to be 7.28%.
With `COc1ccc(OC)c(C2NC(=O)NC(C)=C2C(=O)OC2CCCCC2)c1` (centres unmarked), the “hERG current change (%, negative = inhibition) at 1uM” value is on record as 8.04%.
In the case of `CNC(=S)SCCOc1ccccc1C`, the “hERG current change (%, negative = inhibition) at 1uM” value was 8.74%.
For `Cc1ccc(/C=C(\NC(=O)c2ccccc2)C(=O)N2CCCC2C(=O)O)cc1` (centres unmarked) the value was 3.75%; for `Cc1cc(-c2n[nH]c(=S)n2/N=C/c2ccc(C)o2)n[nH]1`, 11.1%.
For `N/C(=N\OC(=O)Cc1ccc([N+](=O)[O-])cc1)c1ccc([N+](=O)[O-])cc1` the value was -6.81%.
Turning to `CCC(C)(C)NC(=O)c1ccc(Sc2nncn2C)c([N+](=O)[O-])c1`, the “hERG current change (%, negative = inhibition) at 1uM” value was found to be 8.02%.
Consider `CN(C)S(=O)(=O)c1cccc(NC(=O)CSc2nncn2C)c1`, for which the “hERG current change (%, negative = inhibition) at 1uM” value is recorded as 12.2%.
With `COc1ccc(Cl)cc1NC(=O)CN(C)C(=O)c1cc2c(s1)CCC(C)C2` (centres unmarked), the “hERG current change (%, negative = inhibition) at 1uM” value is reported as 15%.
As for `c1ccc(CCc2ccncc2)cc1`, the “hERG current change (%, negative = inhibition) at 1uM” value amounted to 10.7%.
Consider `N/C(=N\O)c1ccc(NC(=O)c2cccs2)cc1`, for which the “hERG current change (%, negative = inhibition) at 1uM” value is recorded as 7.55%.
For `CCOC(=O)COc1ccccc1/C=N\NC(=O)c1cc2c(ccc3ccccc32)o1`, the “hERG current change (%, negative = inhibition) at 1uM” value worked out at 9.86%.
`COc1ccc(OCC(=O)N2CCN(S(=O)(=O)c3ccc(Cl)s3)CC2)cc1`: the “hERG current change (%, negative = inhibition) at 1uM” value amounted to 0.551%.
Take `Clc1cccc(Nc2nc(-c3cccnc3)cs2)c1`: the “hERG current change (%, negative = inhibition) at 1uM” value came to 7.97%.
For `CC(=O)NC1(C(F)(F)F)C(=O)Nc2c1c(=O)[nH]c(=O)n2Cc1ccco1` (centres unmarked), the “hERG current change (%, negative = inhibition) at 1uM” value came to 11.4%.
Take `CCOc1ccc(NC(=O)CCS(=O)(=O)c2ccc(C)cc2)cc1`: the “hERG current change (%, negative = inhibition) at 1uM” value came out at 2.45%.
On to `CCc1c(C)c2c(C)nn(-c3ccccc3)c2oc1=O`, for which the “hERG current change (%, negative = inhibition) at 1uM” value is 12%.
In the case of `c1ccc(N(c2ccccc2)c2nc(-n3ccnc3)nc(-n3ccnc3)n2)cc1`, the “hERG current change (%, negative = inhibition) at 1uM” value is recorded as -2.04%.
As to `CN(C)C=O.COc1cc(/C=C/c2nc3ccccc3c(=O)n2-c2ccc(O)cc2)ccc1O`, the “hERG current change (%, negative = inhibition) at 1uM” value came out at 19.3%.
For `COc1ccccc1-c1n[nH]c(=S)o1` the value was 16.7%; for `O=C(CCNC(=O)c1ccccc1Cl)Nc1cc(C(F)(F)F)ccc1Cl`, 15.2%.
Consider `Cc1cccc(N(C(=O)Nc2ccccc2)C2=NCC(C)S2)c1` (centres unmarked), for which the “hERG current change (%, negative = inhibition) at 1uM” value came to 5.09%.
`CCCCCCC(=O)Nc1nc(C)c(-c2csc(Nc3cccc(OC)c3)n2)s1`: the “hERG current change (%, negative = inhibition) at 1uM” value is reported as 15.9%.
As for `Cc1cccc(/C=N/n2c(-c3ccccc3)n[nH]c2=S)c1O`, the “hERG current change (%, negative = inhibition) at 1uM” value is on record as 9.2%.
For `CN(C(=O)c1cccc(Nc2ccc(-c3ccc4c(c3)OCCO4)nn2)c1)C1CCCCC1` the value was 5.84%; for `COc1cccc(C(=O)N2CCN(Cc3ccccc3C(F)(F)F)CC2)c1.O=C(O)C(=O)O`, 3.08%.
With `COCCNc1nc2c(c(=O)n(Cc3ccccc3F)c(=O)n2C)n1C`, the “hERG current change (%, negative = inhibition) at 1uM” value is reported as 2.52%.
With `CC(=O)Cn1c(=O)oc2ccccc21`, the “hERG current change (%, negative = inhibition) at 1uM” value is recorded as 9.03%.
Turning to `Brc1cccc(-c2n[nH]c(-c3ccccc3)n2)c1`, the “hERG current change (%, negative = inhibition) at 1uM” value was -2.61%.
For the compound `COc1cc(C(=O)NCc2cc3cc(Cl)ccc3n2C)cc(OC)c1OC`, the “hERG current change (%, negative = inhibition) at 1uM” value is 18.9%.
Turning to `COc1ccc(NS(=O)(=O)c2ccc(NC(=O)c3ccc(CN4CCOCC4)cc3)cc2)cc1`, the “hERG current change (%, negative = inhibition) at 1uM” value was found to be 13.9%.
With `Cc1ccccc1NC(=O)COC(=O)c1c[nH]c(=O)[nH]c1=O`, the “hERG current change (%, negative = inhibition) at 1uM” value was found to be 17.8%.
Under `COc1ccc2cc(C(=O)NCc3ccco3)c(=Nc3ccc(C(=O)O)cc3)oc2c1` stands 11.7%; under `CCOC(=O)Cn1cc(C(=O)OC)c2ccccc21`, 18.7%; under `O=C(COC(=O)c1ccc(Br)o1)c1ccc(S(=O)(=O)N2CCCCC2)cc1`, 11.2%.
For `CN(C(=O)Oc1cccc2cccnc12)c1ccccc1`, the “hERG current change (%, negative = inhibition) at 1uM” value came to 13.4%.
Under `Cc1oc2cc(O)ccc2c(=O)c1Oc1ccccc1Br` stands 20.6%; under `CCc1[nH]nc2c1C(C1C=CCCC1)C(C#N)=C(N)O2` (centres unmarked), 10.1%.
Regarding `Cc1cc[n+](C(C)C(=O)c2ccc(-c3ccccc3)cc2)cc1.[Br-]` (centres unmarked), the “hERG current change (%, negative = inhibition) at 1uM” value was 14.1%.
Under `COc1cc(NS(=O)(=O)c2ccc(OC)c(C)c2C)c(OC)cc1Cl` stands 18.5%.
